Data taken from article PMC11869525.
No constants are given. Whether binding was seen depends on the method and setting. Some entries that bind do so weakly or less than the wild type. Each block holds one substance with its values, some of them ahead of it.

Assays:
[1] = target: theta (θ) subunit of the Pol III core, His-tagged (E. coli) (UniProt P0ABS8); test: co-purification; α, His-θ and ε co-expressed in E. coli Acella2; lysate on His-Trap HP, then Hi-Trap Heparin HP, then Superdex 200 16/600 size exclusion
[2] = target: Pol III α-subunit L1097/8S, with a 10X histidine tag on its N-terminus (E. coli) (UniProt P10443); test: pull-down; His10-Pol III-α held on HisPur Ni-NTA resin; 1:2 molar ratio of τ-CLC and Pol III-α; rocked at 4 °C for 30 min; binding buffer 20 mM sodium phosphate, 0.5 M NaCl, 20 mM imidazole, pH 7.4; 13 washes; elution with 500 mM imidazole; Western blot with antibodies to α or τ; both purified
[3] = target: Pol III α-subunit L1097S, with a 10X histidine tag on its N-terminus (E. coli) (UniProt P10443); test: as above
[4] = target: Pol III α-subunit L1128S, with a 10X histidine tag on its N-terminus (E. coli) (UniProt P10443); test: as above
[5] = target: Pol III α-subunit Y1119A, with a 10X histidine tag on its N-terminus (E. coli) (UniProt P10443); test: as above
[6] = target: Pol III α-subunit, WT, with a 10X histidine tag on its N-terminus (E. coli) (UniProt P10443); test: as above

binding [1]: binds
Substance: Pol III α-subunit L1097/8S of the Pol III core (αεθ) (from UniProt P10443 1-1160) (enzyme)

binding [1]: binds
Substance: Pol III α-subunit L1097S of the Pol III core (αεθ) (from UniProt P10443 1-1160) (enzyme)

binding [1]: binds
Substance: Pol III α-subunit L1128S of the Pol III core (αεθ) (from UniProt P10443 1-1160) (enzyme)

binding [1]: binds
Substance: Pol III α-subunit Y1119A of the Pol III core (αεθ) (from UniProt P10443 1-1160) (enzyme)

binding [2]: no binding | binding [3]: binds weakly | binding [4]: no binding | binding [5]: no binding | binding [6]: binds
Substance: clamp loader complex τ3δδ'ψχ (from UniProt P06710 1-643; P28630 1-343; P28631 1-334; P28632 1-137; P28905 1-147)
